First the molecules themselves.
B1: PhoQ; a variant is named by its letters at X, in order, P23837 (parent)
chain: MKKLLRLFFPLSLRVRFLLATAAVVLVLSLAYGMVALIGYSVSFDKTTFRLLRGESNLFYTLAKWENNKLHVELPENIDKQSPTMTLIYDENGQLLWAQRDVPWLMKMIQPDWLKSNGFHEIEADVNDTSLLLSGDHSIQQQLQEVREDDDDAEMTHSVAVNVYPATSRMPKLTIVVVDTIPVELKSSYMVWSWFIYVLSANLLLVIPLLWVAAWWSLRPIEALAKEVRELEEHNRELLNPATTRELTSLVRNLNRLLKSERERYDKYRTTLTDLTHSLKTPLXXLQXXLRSLRSEKMSVSDAEPVMLEQISRISQQIGYYLHRASMRGGTLLSRELHPVAPLLDNLTSALNKVYQRKGVNISLDISPEISFVGEQNDFVEVMGNVLDNACKYCLEFVEISARQTDEHLYIVVEDDGPGIPLSKREVIFDRGQRVDTLRPGQGVGLAVAREITEQYEGKIVAGESMLGGARMEVIFGRQHSAPKDE

This is one part of the list.

In this assay the parent is B1. Kind of assay: enrichment ratio after two sorts for PhoP signalling (ratio (wild type AVST 3.29)); higher = more functional. The following applies: with PhoP (E. coli).
As to MRAM, the enrichment ratio is at most 0.25.
On to LLQL, for which the enrichment ratio is at most 0.25.
Under PKPC stands at most 0.25; under YKYT, at most 0.25.
Regarding SQIM, the enrichment ratio amounted to 20.8.
With WADL, the enrichment ratio was at most 0.25.
Consider LFWG, for which the enrichment ratio is at most 0.25.
Under YQDT stands at most 0.25; under GFKM, at most 0.25; under EVAV, at most 0.25.
As to GKWI, the enrichment ratio is at most 0.25.
Under MFYT stands at most 0.25; under VSGD, at most 0.25.
Under KGSR stands at most 0.25.
With TPMA, the enrichment ratio was at most 0.25.
Under YRMY stands at most 0.25.
Under LVSG stands at most 0.25.
Under RMEK stands at most 0.25; under VMVS, at most 0.25; under LDWK, at most 0.25.
In the case of EYWQ, the enrichment ratio is at most 0.25.
For CAFT, the enrichment ratio is at most 0.25.
Regarding YNIT, the enrichment ratio is at most 0.25.
Under GVNP stands at most 0.25.
With NITN, the enrichment ratio was at most 0.25.
Under DATT stands at most 0.25; under SDGG, at most 0.25.
Regarding IPIW, the enrichment ratio was at most 0.25.
Under LEFD stands at most 0.25; under LRGC, at most 0.25; under FFNQ, at most 0.25.
Under KTYK stands at most 0.25; under FTIS, at most 0.25.
Under TFWE stands at most 0.25; under TNSG, 8.46.
With ANIW, the enrichment ratio is at most 0.25.
Under PCNF stands at most 0.25; under GYIQ, at most 0.25; under FDDF, at most 0.25.
Turning to ISCL, the enrichment ratio was at most 0.25.
Under YACR stands at most 0.25.
On to IALW, for which the enrichment ratio is at most 0.25.
Under SNTQ stands 5.26; under FPIT, at most 0.25.
Under IQNR stands at most 0.25; under HKLR, at most 0.25; under RWYM, at most 0.25.
Under KYGM stands at most 0.25.
For PTKM, the enrichment ratio is at most 0.25.
Under MADP stands at most 0.25.
Under LCTF stands at most 0.25; under HAHL, at most 0.25.
Under VCRC stands at most 0.25; under GFFH, at most 0.25; under FPHR, at most 0.25.
For RDRN, the enrichment ratio is at most 0.25.
Under WRPN stands at most 0.25; under QDRN, at most 0.25; under RFCL, at most 0.25.
Under YANF stands at most 0.25; under HTQN, at most 0.25.
Under TNFT stands at most 0.25; under YNAC, at most 0.25; under FNNT, at most 0.25.
On to FMKT, for which the enrichment ratio is at most 0.25.
Under KQGD stands at most 0.25; under GILP, at most 0.25; under WIIY, at most 0.25.
For MKKR, the enrichment ratio was at most 0.25.
Under TNCH stands at most 0.25; under KDGD, at most 0.25; under HEFW, at most 0.25.
Under LWRM stands at most 0.25.
Under VEVQ stands at most 0.25; under DHYA, at most 0.25.
Turning to IQWS, the enrichment ratio was at most 0.25.
In the case of LGKG, the enrichment ratio was at most 0.25.
Under WSKH stands at most 0.25; under IQMS, at most 0.25.
Under TEKM stands at most 0.25.
Under AKCH stands 4.9.
As for VPSY, the enrichment ratio was at most 0.25.
Under KGKN stands at most 0.25.
Consider QTRH, for which the enrichment ratio is at most 0.25.
Under FTRH stands at most 0.25.
For HKEA, the enrichment ratio was at most 0.25.
Under IQLI stands at most 0.25; under RFAY, 1.64; under AQFD, at most 0.25.
Under TFVD stands at most 0.25.
Under KHKN stands at most 0.25.
Take DVGW: the enrichment ratio was at most 0.25.
Under PPWG stands at most 0.25.
Regarding GKMN, the enrichment ratio was at most 0.25.
Under YKGT stands at most 0.25; under IEQY, at most 0.25.
Under NPHF stands at most 0.25; under IQRD, at most 0.25.
Under YMPF stands at most 0.25; under DCTW, at most 0.25.
For the variant RKAP, the enrichment ratio was at most 0.25.
Under TFKH stands at most 0.25; under PLSC, at most 0.25.
Under PREY stands at most 0.25; under FKKW, at most 0.25; under PMEC, at most 0.25.
Under TEYQ stands 2.43; under IWHH, at most 0.25.
Consider IKLI, for which the enrichment ratio was at most 0.25.
Under DFRL stands at most 0.25.
Under FHNM stands at most 0.25; under AFFM, at most 0.25.
Under LNFE stands at most 0.25.
For RKWE, the enrichment ratio was at most 0.25.
Under WPQG stands at most 0.25; under DHTD, at most 0.25; under VASR, at most 0.25.
Under LNFI stands at most 0.25.
Under VLMF stands at most 0.25; under TSLF, 9.28.
On to KGDK, for which the enrichment ratio is at most 0.25.
In the case of TQNK, the enrichment ratio is at most 0.25.
Under GSAI stands 5.6; under MHLR, at most 0.25.
Under LCKP stands at most 0.25; under EQTE, at most 0.25; under PTED, at most 0.25.
Under QLFY stands at most 0.25.
For MAPG, the enrichment ratio was at most 0.25.
Under WVIW stands at most 0.25; under GKTT, at most 0.25.
Under PYNE stands at most 0.25; under WSPH, at most 0.25.
GYLG: the enrichment ratio was at most 0.25.
Take GRYE: the enrichment ratio is at most 0.25.
Under RMCI stands at most 0.25.
Under ARPN stands at most 0.25; under GNIS, 5.86; under GMQS, at most 0.25.
Take PDPI: the enrichment ratio was at most 0.25.
Under ANSA stands 7.31.
Under RLYY stands at most 0.25; under RSHV, at most 0.25; under MHVE, at most 0.25.
Under VCLT stands 0.608; under WAKG, at most 0.25; under AWFG, at most 0.25.
Consider CALH, for which the enrichment ratio is at most 0.25.
Under WMLS stands at most 0.25; under DFLG, at most 0.25; under MRQV, at most 0.25.
QYSS: the enrichment ratio was at most 0.25.
Under DGLH stands at most 0.25; under CLCI, at most 0.25.
Under MNDH stands at most 0.25; under AWHG, at most 0.25.
Under GWYM stands at most 0.25.
In the case of QKSS, the enrichment ratio is at most 0.25.
Under AWSW stands at most 0.25; under AQDM, at most 0.25.
Under GYHH stands at most 0.25; under DVCI, at most 0.25; under VVNC, at most 0.25.
Under FWGP stands at most 0.25; under MDHS, at most 0.25; under NPPH, at most 0.25.
As for IRVK, the enrichment ratio is at most 0.25.
Under QEPF stands at most 0.25.
Turning to SPMT, the enrichment ratio is at most 0.25.
Under QDDY stands at most 0.25; under VGYQ, at most 0.25; under DQWV, at most 0.25.
Under RMAA stands at most 0.25; under ASVH, 8.62.
For PGYQ, the enrichment ratio was at most 0.25.
For ANYS, the enrichment ratio is at most 0.25.
Under TCEW stands at most 0.25; under HYKY, at most 0.25; under KEIH, at most 0.25.
Under LFCG stands at most 0.25; under VWLY, at most 0.25.
Under MDEC stands at most 0.25; under DIGE, at most 0.25.
For the variant HSFA, the enrichment ratio is at most 0.25.
On to TQGG, for which the enrichment ratio came to 1.42.
Under QPLP stands at most 0.25; under RATD, at most 0.25.
Under LPAL stands at most 0.25; under QPEP, at most 0.25.
Under KKNR stands at most 0.25; under KLCE, at most 0.25.
Consider WQCY, for which the enrichment ratio is at most 0.25.
Under VVQK stands at most 0.25; under CSHG, at most 0.25; under MQGL, at most 0.25.
Under KGSE stands at most 0.25; under THLE, 1.14; under PKLI, at most 0.25.
Regarding FLTS, the enrichment ratio was at most 0.25.
Under MDAN stands 2.34; under LYMA, at most 0.25.
AVIV: the enrichment ratio was at most 0.25.
Under TLHY stands at most 0.25; under IWSE, at most 0.25.
For the variant NRHR, the enrichment ratio was at most 0.25.
Under AVPE stands at most 0.25; under WFNK, at most 0.25.
Under SAFC stands at most 0.25; under DQID, at most 0.25; under MLRE, at most 0.25.
Under MGRE stands at most 0.25.
Consider LTTH, for which the enrichment ratio was at most 0.25.
Under ETVY stands at most 0.25; under RFIA, at most 0.25; under VERH, at most 0.25.
Under ESRQ stands at most 0.25; under QSYR, at most 0.25.
Under DIEN stands at most 0.25.
As for AKTA, the enrichment ratio was at most 0.25.
Under LKAP stands at most 0.25; under QSLS, 0.374.
Under SYQG stands at most 0.25; under LRRG, at most 0.25.
Under RWNC stands at most 0.25.
As to KDSD, the enrichment ratio was at most 0.25.
Under HGTK stands at most 0.25.
For VRFF, the enrichment ratio is at most 0.25.
Under TRVT stands 0.41; under FTES, at most 0.25; under QRNT, at most 0.25.
Under GAIL stands 2.75; under HRWV, at most 0.25; under TLLL, 0.398.
For the variant LNVY, the enrichment ratio was at most 0.25.
Regarding DPNL, the enrichment ratio was at most 0.25.
Under MDVQ stands at most 0.25; under RFPI, at most 0.25; under PASI, at most 0.25.
Under NTYF stands at most 0.25; under NFGV, at most 0.25; under LVHY, at most 0.25.
Under SKVL stands 6.09.
Turning to YQMM, the enrichment ratio was at most 0.25.
Under SMET stands at most 0.25; under MEVN, 17.3; under INFC, at most 0.25.
Under ITHT stands at most 0.25; under RHGS, at most 0.25; under TCQV, 10.1.
Under VRRP stands at most 0.25; under PTEH, at most 0.25.
Regarding RYEY, the enrichment ratio was at most 0.25.
Under QSHF stands 9.45; under PDCH, at most 0.25; under VPCD, at most 0.25.
Turning to GCTT, the enrichment ratio is at most 0.25.
Under KCCP stands at most 0.25; under FFRE, at most 0.25; under TKWT, 0.945.
Consider FHQT, for which the enrichment ratio was at most 0.25.
Regarding GLFQ, the enrichment ratio was at most 0.25.
Under LDWF stands 0.495.
Under IFNS stands at most 0.25; under NKMN, at most 0.25.
For the variant RITA, the enrichment ratio was at most 0.25.
Under WSRM stands at most 0.25; under NVFS, at most 0.25.
Under FVYP stands at most 0.25; under KSQN, at most 0.25; under HWIF, at most 0.25.
Under TWFY stands at most 0.25.
GSVA: the enrichment ratio was at most 0.25.
Under DPVY stands at most 0.25.
With HWGC, the enrichment ratio is at most 0.25.
Under TAKE stands at most 0.25.
Under AGIR stands 0.567.
Under KHSG stands at most 0.25; under EPSY, at most 0.25; under HTRI, at most 0.25.
On to IYEQ, for which the enrichment ratio was at most 0.25.
For the variant AEYE, the enrichment ratio was at most 0.25.
Under TCHE stands at most 0.25; under WKWC, at most 0.25.
Turning to PIKK, the enrichment ratio was at most 0.25.
QLLT: the enrichment ratio is at most 0.25.
Turning to PHVG, the enrichment ratio is at most 0.25.
Under VPKG stands at most 0.25.
Under WHAK stands at most 0.25; under PFTW, at most 0.25; under QLEM, at most 0.25.
Under YFDH stands at most 0.25.
With LSHM, the enrichment ratio was 4.14.
Take WESL: the enrichment ratio was at most 0.25.
With WRTM, the enrichment ratio is at most 0.25.
As for VKST, the enrichment ratio was at most 0.25.
Under EGYH stands at most 0.25; under TTMR, 5.27; under FIED, at most 0.25.
Under AHEV stands at most 0.25.
Under MDCA stands at most 0.25.
On to RMKS, for which the enrichment ratio was at most 0.25.
Under SAVF stands 4.22; under SIQA, 0.295.
Under YCTI stands at most 0.25.
Under IHQG stands at most 0.25; under YRGV, at most 0.25.

(Values after a collection of fitness landscapes (doi:10.1126/science.1257360).)
